# Experimental data as given in article PMC4336329 (PLoS ONE, 2015).
# Out of some 310,000 compounds screened, about 14,000 (4.5%) showed an effect of 50% or more. The effect is printed as a negative number. Some of the results follow.
# Biological target: human ether-à-go-go-related gene (hERG) potassium channel (human, UniProt Q12809)
# Assay: primary screen, population patch clamp on CHO cells stably expressing hERG
# 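Note: peak tail current of the secondary pulse compared with the same well before compound.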
# human ether-à-go-go-related gene (hERG) potassium channel, sequence (Q12809 whole entry, looked up): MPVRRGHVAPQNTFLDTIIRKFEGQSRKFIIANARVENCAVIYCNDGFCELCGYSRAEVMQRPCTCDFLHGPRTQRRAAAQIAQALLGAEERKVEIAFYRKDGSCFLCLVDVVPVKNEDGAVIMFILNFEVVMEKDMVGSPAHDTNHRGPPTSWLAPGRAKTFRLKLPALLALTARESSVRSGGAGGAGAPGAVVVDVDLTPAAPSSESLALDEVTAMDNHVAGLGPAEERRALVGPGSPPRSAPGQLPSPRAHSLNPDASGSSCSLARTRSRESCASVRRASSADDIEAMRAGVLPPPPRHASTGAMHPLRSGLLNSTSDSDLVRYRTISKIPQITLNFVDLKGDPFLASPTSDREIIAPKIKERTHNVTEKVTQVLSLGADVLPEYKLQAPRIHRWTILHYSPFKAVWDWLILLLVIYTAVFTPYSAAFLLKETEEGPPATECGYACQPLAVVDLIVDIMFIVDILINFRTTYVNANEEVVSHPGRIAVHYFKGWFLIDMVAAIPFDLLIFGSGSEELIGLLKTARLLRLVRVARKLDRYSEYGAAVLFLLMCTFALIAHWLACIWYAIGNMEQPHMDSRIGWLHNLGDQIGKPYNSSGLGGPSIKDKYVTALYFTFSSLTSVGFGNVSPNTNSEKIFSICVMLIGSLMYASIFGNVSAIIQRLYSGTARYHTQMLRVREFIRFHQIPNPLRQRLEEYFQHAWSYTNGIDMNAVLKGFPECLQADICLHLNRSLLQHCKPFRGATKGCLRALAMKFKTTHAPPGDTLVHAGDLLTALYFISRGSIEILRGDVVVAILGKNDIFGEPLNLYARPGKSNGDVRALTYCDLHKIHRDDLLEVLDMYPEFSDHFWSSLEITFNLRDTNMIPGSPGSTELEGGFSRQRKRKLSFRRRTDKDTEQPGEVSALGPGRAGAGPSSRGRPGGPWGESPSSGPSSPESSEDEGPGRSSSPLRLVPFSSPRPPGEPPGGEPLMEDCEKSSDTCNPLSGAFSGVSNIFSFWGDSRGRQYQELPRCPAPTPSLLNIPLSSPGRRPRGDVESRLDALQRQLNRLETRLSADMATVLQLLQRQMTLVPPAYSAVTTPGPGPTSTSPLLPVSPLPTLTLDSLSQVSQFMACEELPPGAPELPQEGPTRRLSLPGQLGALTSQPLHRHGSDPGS
row,Structure (SMILES),"hERG current change (%, negative = inhibition) at 10uM"
1,Cc1ccc(C(=O)N/C(=C\c2sccc2C)C(=O)NCc2ccco2)cc1,8.35%
2,O=C(NC(=S)Nc1ccc2oc(=O)ccc2c1)c1ccccc1F,9.66%
3,c1ccc(CN2CCN(Cc3c[nH]c4ccccc34)CC2)cc1,-30.2%
4,COc1cccc(-c2nnc(SCC(=O)OC(C)C)n2N)c1,-6.63%
5,CC(C)(C)c1csc(NC(=O)Cn2cnc3ccccc3c2=O)n1,-8.09%
6,OCC[C@H]1C[C@H](O)[C@@H](O)[C@]2(CCc3ccccc3O2)O1,6.41%
7,COc1ccc(C/C(C)=N\NC(=O)c2c[nH]c3ccccc23)cc1OC,5.88%
8,COc1ccc(-n2cnc3cc(C(=O)NC4CCCC4)ccc32)cc1,-67.9%
9,NNC(=O)c1cc2c(s1)-c1cc(Cl)ccc1SC2,10.3%
10,COc1ccc(CN2CCC(N3CCC(C(=O)N4CCOCC4)CC3)CC2)c(F)c1,-38.7%
11,CNC(=O)C12CCC(C)(c3nc4cc(C)c(C)cc4nc31)C2(C)C (stereo not shown),-13.1%
12,CCN1CCN(S(=O)(=O)Cc2ccccc2)CC1,8.52%
13,CC1(C)Cc2ccccc2-c2nnc(SCC(=O)N3CCN(c4ccccc4)CC3)n21,-73.7%
14,O=C(O)C(=O)O.c1coc(CNCCc2c[nH]c3ccccc23)c1,1.35%
15,C/C(=N\NC(=O)COc1ccc(C(C)(C)C)cc1)c1ccc(-n2ccnc2)cc1,-58.9%
16,CC(NCc1ccc(S(N)(=O)=O)cc1)C(=O)Nc1cc([N+](=O)[O-])ccc1Cl (stereo not shown),-45.8%
17,CCOC(=O)/C=C1\CN(CCC(C)C)S(=O)(=O)c2ccccc21,-19%
18,CCOC(=O)N1CCN(S(=O)(=O)c2ccc3c4c(cccc24)C(=O)N3)CC1,-14.5%
19,[N-]=[N+]=CC(=O)CNC(=O)[C@@H](Cc1ccccc1)N1C(=O)c2ccccc2C1=O,6.66%
20,Cc1ccc(-n2c(-c3ccc(Cl)cc3Cl)n[nH]c2=S)cc1,24.3%
21,Cc1cc(C)cc(NC(=O)Nc2ccc3c(c2)N(C)C(=O)CS3)c1,8.27%
22,CCC1CN(C(=O)N2CCC(C(=O)NCCc3ccc(OC)c(OC)c3)CC2)c2ccccc2O1 (stereo not shown),0.164%
23,COc1ccccc1N1CCN(C2CCCN(Cc3cccc(O)c3)C2)CC1 (stereo not shown),-9.65%
24,COc1ccccc1NCC(=O)c1ccc(Cl)cc1,4.01%
25,CC(=O)N1CCc2ccc(S(=O)(=O)N3CCc4ccccc43)cc21,-39.3%
26,COC(=O)c1ccc(C(=O)OC)c(NC(=S)N2CCN(c3ccccc3F)CC2)c1,-52.9%
27,O=C(O)CC(CP(=O)(c1ccccc1)c1ccccc1)C(=O)O (stereo not shown),2.83%
28,COc1ccc(NS(=O)(=O)c2cc([N+](=O)[O-])ccc2N/N=C\c2c(C)[nH]c3ccccc23)cc1,22.8%

row,Structure (SMILES),"hERG current change (%, negative = inhibition) at 10uM"
1,CCCCc1ccc(NC(=S)NCC2CCCO2)cc1 (stereo not shown),-16.2%
2,CCOc1ccccc1NC(=S)Nc1ccc2cn[nH]c2c1,-14%
3,COc1cc(/C=C2\C(=N)N3N=C(C)SC3=NC2=O)cc(OC)c1OCCOc1ccccc1C,30.7%
4,CC1CCN(S(=O)(=O)c2cccc(-c3csc(-c4cccnc4)n3)c2)CC1,-0.0174%
5,O=C(CSc1nnc(-c2ccccc2Cl)o1)Nc1ccccn1,14.9%
6,COc1ccc(C)cc1NC(=O)Nc1ccccc1SC,11.6%
7,Nc1cc(OC(=O)c2ccccc2Br)nn1S(=O)(=O)c1ccccc1,17.6%
8,COc1ccc(OCC(=O)N2CCN(C(=O)c3ccc([N+](=O)[O-])cc3)CC2)cc1,-67.2%
9,CC1CC(NC(=O)/C=C/C(=O)O)CC(C)(C)C1 (stereo not shown),15.5%
10,O=C(CSc1nnc(-c2ccccc2)o1)OCc1ccccc1,16.5%
11,COc1ccc(CCNC(=O)CSc2c[nH]c3ccccc23)cc1OC,-4.32%
12,N#C/C(=C\c1ccc(N2CCOCC2)o1)C(=O)NC1CCCCC1,-7.2%
13,Cc1ccc(N2CC3=C(C2=O)C(c2ccccc2)NC(=O)N3C)cc1 (stereo not shown),3.87%
14,COc1ccc(-n2c(C)cc(C(=O)COC(=O)c3cc(NC(=O)c4cccs4)c(OC)c(OC)c3)c2C)cc1,6.03%
15,Cc1ccc2c(=O)cc(C(=O)NCCc3ccc(S(N)(=O)=O)cc3)oc2c1,9.13%
16,COc1ccc(S(=O)(=O)N(C)CC(=O)N2CCCCCC2)cc1,14.5%
17,Cc1ccc(NC(=O)COC(=O)c2cccc3c(=O)c(C)c(-c4ccccc4)oc23)cc1,7.93%
18,CN(C)C(=O)CN1CCN(c2nc3nonc3nc2N2CCCCC2)CC1,1.83%
19,Cc1[nH]n(-c2ccc(F)cc2)c(=O)c1/C=N/c1sc2c(c1C#N)CCCC2,18.3%
20,CCc1ccc(/C=C2\Oc3cc(OC(=O)N4CCOCC4)ccc3C2=O)cc1,18.2%
21,COc1ccc(C(=O)N(C)CC(O)c2ccccc2)cc1OC1CCN(C(C)=O)CC1 (stereo not shown),6.6%
22,CCC(=O)N(Cc1ccco1)c1nc(-c2ccc(OC)cc2)cs1,0.363%
23,Cc1c(Cc2ccccc2)sc(NC(=O)C(C)(C)C)c1C(N)=O,-20.8%
24,O=S(=O)(NC(=NCc1ccccc1)c1ccc(F)cc1)c1ccc(Cl)cc1,24.9%
25,O=C(Nc1ccncc1)Nc1ccc(F)cc1F,13.1%
26,C[C@H](NC(=O)OCc1ccccc1)C(=O)NNC(=O)[C@H](C)NC(=O)OCc1ccccc1,17.3%
27,COc1ccc(C(=O)Oc2cc(/C=N/NS(=O)(=O)c3ccccc3)ccc2OC)cc1,14.2%
